Source: the supplement of paper PMC12067093, “Discovery and optimisation of a covalent ligand for TRIM25 and its application to targeted protein ubiquitination” (Chemical Science, 2025)
Targets with the largest changes are over-represented here; the source holds about 21,000 in all.

Compound: CC1Cc2ccccc2N1C(=O)C1CCCN(C1)C(=O)CCl (mixture of isomers) [TRIM25 ligand 11 (diastereomer mixture)]
Experiment: probe-labelled cysteine peptide fold change vs DMSO (competition) (log2 fold change); higher = less target engagement (more negative = stronger competition)
Details: THP-1, incubation time: 4 h
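Further: competitive chemoproteomic profiling in live THP-1 cells with an iodoacetamide desthiobiotin (IA-DTB) probe, comparing probe-labelled peptide intensities in compound-treated cells against DMSO-treated controls.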

Chain of UniProt P18669 (P18669 whole entry, looked up): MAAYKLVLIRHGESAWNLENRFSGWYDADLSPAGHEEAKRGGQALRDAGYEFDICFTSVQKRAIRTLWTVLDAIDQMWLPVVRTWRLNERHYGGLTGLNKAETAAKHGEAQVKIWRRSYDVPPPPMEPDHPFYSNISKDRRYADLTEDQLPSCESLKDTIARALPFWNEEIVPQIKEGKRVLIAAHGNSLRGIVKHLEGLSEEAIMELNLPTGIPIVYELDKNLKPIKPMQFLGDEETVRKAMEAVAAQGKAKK
Chain of UniProt O75151 (O75151 whole entry, looked up): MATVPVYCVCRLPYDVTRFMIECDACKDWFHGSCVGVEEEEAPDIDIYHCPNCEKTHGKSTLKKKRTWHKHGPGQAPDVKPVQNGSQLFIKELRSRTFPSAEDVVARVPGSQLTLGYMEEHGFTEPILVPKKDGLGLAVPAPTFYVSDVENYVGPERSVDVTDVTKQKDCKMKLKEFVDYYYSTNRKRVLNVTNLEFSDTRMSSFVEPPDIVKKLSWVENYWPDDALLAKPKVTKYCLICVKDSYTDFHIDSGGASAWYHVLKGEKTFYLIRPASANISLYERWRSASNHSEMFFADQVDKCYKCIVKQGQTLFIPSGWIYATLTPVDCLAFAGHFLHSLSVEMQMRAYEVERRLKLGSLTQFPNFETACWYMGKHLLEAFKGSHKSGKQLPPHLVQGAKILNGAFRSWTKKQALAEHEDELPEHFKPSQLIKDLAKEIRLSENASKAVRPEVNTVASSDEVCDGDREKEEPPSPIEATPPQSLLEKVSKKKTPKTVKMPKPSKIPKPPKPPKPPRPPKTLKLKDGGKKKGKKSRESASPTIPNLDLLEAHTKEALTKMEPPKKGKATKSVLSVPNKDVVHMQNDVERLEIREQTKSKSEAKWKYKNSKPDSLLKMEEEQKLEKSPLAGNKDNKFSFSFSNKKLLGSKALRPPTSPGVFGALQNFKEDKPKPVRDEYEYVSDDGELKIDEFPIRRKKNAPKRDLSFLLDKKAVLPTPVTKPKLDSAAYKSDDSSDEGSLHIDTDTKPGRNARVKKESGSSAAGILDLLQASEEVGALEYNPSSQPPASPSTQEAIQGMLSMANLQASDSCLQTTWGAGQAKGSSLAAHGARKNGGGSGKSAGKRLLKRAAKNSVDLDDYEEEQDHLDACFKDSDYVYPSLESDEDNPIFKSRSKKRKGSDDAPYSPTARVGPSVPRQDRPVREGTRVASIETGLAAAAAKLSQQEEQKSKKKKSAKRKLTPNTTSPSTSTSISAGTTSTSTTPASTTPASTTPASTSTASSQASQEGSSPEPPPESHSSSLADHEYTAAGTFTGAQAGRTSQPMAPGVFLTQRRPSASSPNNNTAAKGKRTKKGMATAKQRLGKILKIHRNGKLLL
Chain of UniProt P16885 (P16885 whole entry, looked up): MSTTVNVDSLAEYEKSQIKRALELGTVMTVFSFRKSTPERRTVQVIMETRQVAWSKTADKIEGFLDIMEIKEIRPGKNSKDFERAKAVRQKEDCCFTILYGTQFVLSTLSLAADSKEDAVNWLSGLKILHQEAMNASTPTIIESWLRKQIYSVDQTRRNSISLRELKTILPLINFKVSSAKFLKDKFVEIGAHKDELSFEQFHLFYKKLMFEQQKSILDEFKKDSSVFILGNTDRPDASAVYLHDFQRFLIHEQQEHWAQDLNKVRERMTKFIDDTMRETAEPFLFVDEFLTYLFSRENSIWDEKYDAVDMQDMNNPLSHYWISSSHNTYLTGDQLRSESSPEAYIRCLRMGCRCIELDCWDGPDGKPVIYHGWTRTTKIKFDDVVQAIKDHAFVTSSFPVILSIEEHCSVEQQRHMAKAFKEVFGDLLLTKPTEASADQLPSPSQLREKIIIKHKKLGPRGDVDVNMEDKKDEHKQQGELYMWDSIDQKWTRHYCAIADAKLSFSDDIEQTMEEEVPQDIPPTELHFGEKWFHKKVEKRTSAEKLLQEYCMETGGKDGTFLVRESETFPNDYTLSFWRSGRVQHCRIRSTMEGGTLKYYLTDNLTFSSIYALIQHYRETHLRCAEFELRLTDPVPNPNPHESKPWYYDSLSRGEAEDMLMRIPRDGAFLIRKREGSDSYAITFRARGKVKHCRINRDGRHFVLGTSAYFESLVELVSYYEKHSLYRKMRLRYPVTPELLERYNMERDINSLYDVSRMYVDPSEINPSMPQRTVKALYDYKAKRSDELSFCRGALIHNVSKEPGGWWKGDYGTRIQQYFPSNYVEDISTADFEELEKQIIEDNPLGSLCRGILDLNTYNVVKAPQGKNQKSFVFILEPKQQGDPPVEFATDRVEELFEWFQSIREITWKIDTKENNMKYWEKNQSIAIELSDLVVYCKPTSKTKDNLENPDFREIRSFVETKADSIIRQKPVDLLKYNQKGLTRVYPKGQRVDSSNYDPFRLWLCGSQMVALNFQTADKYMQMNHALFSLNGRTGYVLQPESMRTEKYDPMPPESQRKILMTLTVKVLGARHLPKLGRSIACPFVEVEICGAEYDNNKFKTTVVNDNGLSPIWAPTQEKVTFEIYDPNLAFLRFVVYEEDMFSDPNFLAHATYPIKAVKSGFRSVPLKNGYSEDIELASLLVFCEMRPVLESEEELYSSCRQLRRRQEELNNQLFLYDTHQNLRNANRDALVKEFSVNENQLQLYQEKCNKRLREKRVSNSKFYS
Chain of UniProt O43314 (O43314 whole entry, looked up): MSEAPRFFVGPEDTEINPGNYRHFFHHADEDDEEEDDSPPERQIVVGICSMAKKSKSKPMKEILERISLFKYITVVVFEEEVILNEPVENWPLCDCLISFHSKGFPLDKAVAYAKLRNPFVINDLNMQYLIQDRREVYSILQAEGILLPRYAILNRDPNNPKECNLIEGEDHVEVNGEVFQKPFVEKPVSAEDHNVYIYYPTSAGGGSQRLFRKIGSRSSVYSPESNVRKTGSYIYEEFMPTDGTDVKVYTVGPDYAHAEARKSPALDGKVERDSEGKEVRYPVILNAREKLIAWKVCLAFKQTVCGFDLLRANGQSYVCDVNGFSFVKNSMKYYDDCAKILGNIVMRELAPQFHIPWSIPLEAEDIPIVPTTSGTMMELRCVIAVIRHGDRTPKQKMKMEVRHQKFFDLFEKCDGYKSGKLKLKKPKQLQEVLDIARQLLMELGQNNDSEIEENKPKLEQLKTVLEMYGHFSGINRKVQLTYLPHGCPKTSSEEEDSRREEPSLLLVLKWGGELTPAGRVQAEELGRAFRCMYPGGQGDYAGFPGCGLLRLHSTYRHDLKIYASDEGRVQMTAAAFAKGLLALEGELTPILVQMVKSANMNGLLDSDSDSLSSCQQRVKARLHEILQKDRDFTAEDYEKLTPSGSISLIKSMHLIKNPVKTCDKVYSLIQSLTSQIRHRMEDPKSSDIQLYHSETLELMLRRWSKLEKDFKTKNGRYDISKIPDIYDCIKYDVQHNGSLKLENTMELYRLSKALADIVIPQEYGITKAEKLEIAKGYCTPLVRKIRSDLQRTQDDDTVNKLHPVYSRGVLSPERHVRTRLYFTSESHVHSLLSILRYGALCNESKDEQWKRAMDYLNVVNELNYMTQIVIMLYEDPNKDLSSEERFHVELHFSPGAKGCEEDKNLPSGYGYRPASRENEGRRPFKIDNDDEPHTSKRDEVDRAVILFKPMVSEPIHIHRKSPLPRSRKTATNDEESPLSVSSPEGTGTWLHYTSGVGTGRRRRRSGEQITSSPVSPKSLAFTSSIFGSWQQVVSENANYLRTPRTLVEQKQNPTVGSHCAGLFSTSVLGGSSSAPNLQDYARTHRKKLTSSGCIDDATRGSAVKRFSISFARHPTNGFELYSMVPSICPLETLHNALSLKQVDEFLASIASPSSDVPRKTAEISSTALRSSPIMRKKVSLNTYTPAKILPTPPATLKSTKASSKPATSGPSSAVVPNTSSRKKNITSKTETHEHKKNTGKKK
Chain of UniProt Q8WXW3 (Q8WXW3 whole entry, looked up): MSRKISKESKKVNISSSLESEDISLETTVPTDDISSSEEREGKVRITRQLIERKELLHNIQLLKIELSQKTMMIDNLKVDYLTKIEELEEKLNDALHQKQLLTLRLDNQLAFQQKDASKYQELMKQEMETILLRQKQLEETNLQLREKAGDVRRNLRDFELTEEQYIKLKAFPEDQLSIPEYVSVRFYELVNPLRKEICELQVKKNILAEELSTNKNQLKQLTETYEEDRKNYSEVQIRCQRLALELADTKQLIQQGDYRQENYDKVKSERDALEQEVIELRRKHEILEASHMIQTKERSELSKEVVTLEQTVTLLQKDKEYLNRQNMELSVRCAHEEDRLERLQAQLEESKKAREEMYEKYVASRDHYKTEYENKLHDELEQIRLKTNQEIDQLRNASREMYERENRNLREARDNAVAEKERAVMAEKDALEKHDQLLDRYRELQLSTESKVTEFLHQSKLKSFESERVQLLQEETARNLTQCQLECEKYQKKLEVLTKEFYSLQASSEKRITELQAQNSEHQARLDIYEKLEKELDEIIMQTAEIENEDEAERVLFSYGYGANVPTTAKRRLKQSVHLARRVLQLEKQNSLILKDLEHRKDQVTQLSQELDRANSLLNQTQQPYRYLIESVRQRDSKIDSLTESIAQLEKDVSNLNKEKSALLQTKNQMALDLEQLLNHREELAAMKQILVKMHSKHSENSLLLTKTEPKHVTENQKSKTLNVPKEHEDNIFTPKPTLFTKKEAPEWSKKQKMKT
Chain of UniProt Q9BY77 (Q9BY77 whole entry, looked up): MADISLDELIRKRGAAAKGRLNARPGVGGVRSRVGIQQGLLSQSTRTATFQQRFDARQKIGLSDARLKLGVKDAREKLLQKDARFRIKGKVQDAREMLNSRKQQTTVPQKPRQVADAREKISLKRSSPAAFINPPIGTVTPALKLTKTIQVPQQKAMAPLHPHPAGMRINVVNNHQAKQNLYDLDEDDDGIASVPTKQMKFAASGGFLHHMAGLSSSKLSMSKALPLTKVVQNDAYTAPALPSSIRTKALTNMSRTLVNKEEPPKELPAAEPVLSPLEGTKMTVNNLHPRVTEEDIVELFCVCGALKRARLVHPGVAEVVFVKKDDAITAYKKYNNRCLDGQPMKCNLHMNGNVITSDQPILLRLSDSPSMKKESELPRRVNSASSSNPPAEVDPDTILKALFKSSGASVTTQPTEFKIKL

Target	probe-labelled cysteine peptide fold change (10 µM)	probe-labelled cysteine peptide fold change (50 µM)
PIP4K2A_P48426_343_CHENSPR (UniProt P48426)	0.365	-0.0671
PLEC_Q15149_4245+4254_CITDPQTGLCLLPLK (UniProt Q15149)	0.0469	0.552
PI4KA_P42356_1131_QNTTLGATQLSERPACVK (UniProt P42356)	-0.0117	–
PFKFB3_Q16875_102_KQCALAALR (UniProt Q16875)	-0.148	-0.24
POGZ_Q7Z3K3_532_HHVELDQQNGEVDGHTICQHCYR (UniProt Q7Z3K3)	0.124	-0.154
PRXL2A_Q9BRX8_85_RPGCFLCR (UniProt Q9BRX8)	-2.41	-2.22
PLCG2_P16885_624_CAEFELR (UniProt P16885)	0.0558	0.0418
PGRMC1_O00264_129_GLATFCLDK<|>PGRMC2_O15173_159_GLATFCLDK (UniProt O15173+O00264)	-0.0817	-0.134
PHKB_Q93100-2_3_ACSPDAVVSPSSAFLR (UniProt Q93100)	-0.519	-0.434
PGAM1_P18669_55_DAGYEFDICFTSVQK (UniProt P18669)	0.108	0.0968
PREX1_Q8TCU6_1173_DSYSECNSNR (UniProt Q8TCU6)	0.675	0.807
PRIM2_P49643_367_RTDYTPFSCLK (UniProt P49643)	-0.0349	0.0509
PFKM_P08237_709_IFANTPDSGCVLGMR (UniProt P08237)	-0.24	-0.19
POP1_Q99575_777_EAEEVMDAGCQESAGPER (UniProt Q99575)	0.0867	-0.179
PRKCB_P05771_86_CHEFVTFSCPGADK (UniProt P05771)	0.158	0.0763
PLA2G4A_P47712_634_DCPTIIHFVLANINFR (UniProt P47712)	-0.109	-0.0909
PMS1_P54277_868_EVYECRPR (UniProt P54277)	-0.0515	-0.0199
POLR3A_O14802_1174_VKPGDVAVHGEAVVCVTPR (UniProt O14802)	0.0669	0.179
PMM2_O15305_136_SCSQEER (UniProt O15305)	1.27	0.84

Target	probe-labelled cysteine peptide fold change (10 µM)	probe-labelled cysteine peptide fold change (50 µM)
PPIB_P23284_202_DVIIADCGKIEVEKPFAIAK (UniProt P23284)	-0.714	-0.589
PHF2_O75151_50_DWFHGSCVGVEEEEAPDIDIYHCPNCEK (UniProt O75151)	-0.131	-0.185
PIK3CD_O00329_90_LCDVQPFLPVLR (UniProt O00329)	0.0535	0.0689
PPIH_O43447_174_LPVVISQCGEM (UniProt O43447)	-0.0812	-0.166
PIAS3_Q9Y6X2_620_EGHGGPLPSGPSLTGCR (UniProt Q9Y6X2)	0.562	0.00823
PPIP5K2_O43314_164_ECNLIEGEDHVEVNGEVFQKPFVEK (UniProt O43314)	0.0803	0.212
PNN_Q9H307_249_MCPATQK (UniProt Q9H307)	-0.29	-0.93
PRPF19_Q9UMS4_5+16_SLICSISNEVPEHPCVSPVSNHVYER (UniProt Q9UMS4)	-0.217	-0.792
PRPF6_O94906_513_ANGVEINREQWIQDAEECDR (UniProt O94906)	-0.43	-0.344
PLXNA1_Q9UIW2_1525_GLDCDTVTQAK (UniProt Q9UIW2)	-0.109	-0.183
PFAS_O15067_318_HVVFTAETHNFPTGVCPFSGATTGTGGR (UniProt O15067)	-0.104	-0.163
PLD4_Q96BZ4_313_FQPFHGLFDGVPTTAYFSASPPALCPQGR (UniProt Q96BZ4)	-0.3	-0.836
PPP6R1_Q9UPN7_216_DENQHSNASQSLCDIIR (UniProt Q9UPN7)	0.00266	-0.0457
PFKFB3_Q16875_387_LEPVIMELERQENVLVICHQAVLR (UniProt Q16875)	0.0402	0.0398
PIBF1_Q8WXW3_334_CAHEEDRLER (UniProt Q8WXW3)	1.04	0.237
POLDIP3_Q9BY77_301_VTEEDIVELFCVCGALK (UniProt Q9BY77)	0.113	0.0575
PPP3CA_Q08209_256_GCSYFYSYPAVCEFLQHNNLLSILR (UniProt Q08209)	-0.45	-0.68
PLXND1_Q9Y4D7_752_CEASPNPTSPQDCPR (UniProt Q9Y4D7)	0.138	0.00613
PRKCSH_P14314_56_GVSLTNHHFYDESKPFTCLDGSATIPFDQVNDDYCDCK (UniProt P14314)	-0.413	-0.592
